Measurements reported in the supplement of paper PMC9446081.
The whole screen tested about 39,000 compounds, of which about 220 (0.56%) showed activity. This is one part of the list.

test system: Escherichia coli K-12 BW25113; assay: relative growth (OD600 normalised to plate interquartile mean) (fraction); higher = less growth inhibition, active = 0.2 or less; conditions: 50 µM; LB; incubation time: overnight (16-24 h)
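Further: static incubation at 37 °C against the wild-type strain, values averaged over two biological replicates.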

Compound | relative growth
C[C@@H]1CN([C@H](C)CO)C(=O)c2cc(-c3cncnc3)cnc2O[C@@H]1CN(C)C(=O)CN1CCOCC1 | inactive: 1.04
CC(=O)OC1CC(O)C(C)(C)C2CC(OC(C)=O)C3(C)C(CCC4(C)C(c5ccoc5)OC(=O)C5OC543)C12C (stereo not given) | inactive: 1.06
CC(C)NC(=O)N(C)C[C@H]1Oc2c(NC(=O)C3CCOCC3)cccc2C(=O)N([C@H](C)CO)C[C@@H]1C | inactive: 0.965
C[C@H]1CN([C@@H](C)CO)C(=O)c2cc(NC(=O)C3CCCCC3)ccc2O[C@H]1CN(C)Cc1ccc(-c2ccccc2)cc1 | inactive: 1.04
Cn1cnc(S(=O)(=O)N2C[C@H](O)COC[C@H]3O[C@H](CC(=O)N4CCN(c5ccccc5)CC4)CC[C@@H]32)c1 | inactive: 0.986
CNCc1cnc(NC)nc1 | inactive: 1.02
C[C@@H]1CCCCO[C@H](CN(C)C(=O)Nc2cccc3ccccc23)[C@H](C)CN([C@@H](C)CO)C(=O)c2cc(NS(=O)(=O)c3ccc(F)cc3)ccc2O1 | inactive: 0.95
CN1CCN(C(=O)C[C@H]2CC[C@H](NC(=O)c3ccc4c(c3)OCO4)[C@H](CO)O2)CC1 | inactive: 1
C[C@H]1CN([C@@H](C)CO)C(=O)c2cccc(NC(=O)c3nc4ccccc4s3)c2O[C@H]1CN(C)S(C)(=O)=O | inactive: 1.02
Cc1ccc(S(=O)(=O)N(C)C[C@H]2OCCCC[C@@H](C)Oc3ccc(NC(=O)Nc4ccccc4)cc3C(=O)N([C@H](C)CO)C[C@@H]2C)cc1 | inactive: 1.03
C[C@@H]1CCCCO[C@@H](CN(C)Cc2ccc(C(=O)Nc3ccccc3N)cc2)[C@@H](C)CN([C@H](C)CO)C(=O)c2cc(NC(=O)CCC(F)(F)F)ccc2O1 | inactive: 0.999
O=C(C[C@@H]1CC[C@H]2[C@@H](COC[C@H](O)CN2C(=O)c2cnccn2)O1)N1CCN(c2ccccc2)CC1 | inactive: 0.98
C[C@H](CO)N1C[C@H](C)[C@@H](CN(C)CC2CC2)Oc2ccc(NS(=O)(=O)c3cn(C)cn3)cc2CC1=O | inactive: 0.972
COc1ccc(NC(=O)Nc2ccc3c(c2)[C@H]2C[C@@H](CC(=O)N4CCN(C)CC4)O[C@H](CO)[C@H]2O3)cc1 | inactive: 1
CN(C)C(=O)C[C@@H]1CC[C@H]2[C@H](COc3ccc(NS(=O)(=O)c4cccc(F)c4)cc3C(=O)N2C)O1 | inactive: 0.987
CC(=O)N[C@@H]1CC[C@H](CCNC(=O)C2CC2)O[C@@H]1CO | inactive: 0.964
C[C@@H]1CCCCO[C@H](CN(C)C(=O)Nc2cccc3ccccc23)[C@@H](C)CN([C@@H](C)CO)C(=O)c2cc(NC(=O)C3CCCCC3)ccc2O1 | inactive: 1.01
C[C@H](CO)N1C[C@H](C)[C@@H](CN(C)Cc2ccc(Oc3ccccc3)cc2)Oc2ccc(NC(=O)Nc3ccc(C(F)(F)F)cc3)cc2C1=O | inactive: 0.987
NCCn1cccc1 | inactive: 1.02
Cc1noc(C)c1S(=O)(=O)Nc1ccc2c(c1)CC(=O)N([C@@H](C)CO)C[C@H](C)[C@H](CN(C)Cc1ccccc1)O2 | inactive: 0.967

Compound | relative growth
C[C@@H]1O[C@@H](O[C@H]2[C@H](O)[C@@H](O)[C@H](OC(=O)[C@]34CCC(C)(C)C[C@H]3C3=CC[C@H]5[C@@]6(C)CC[C@H](O[C@@H]7O[C@H](C(=O)O)[C@@H](O)[C@H](O)[C@H]7O)C(C)(C)[C@@H]6CC[C@@]5(C)[C@]3(C)CC4)O[C@@H]2CO)[C@H](O)[C@H](O)[C@H]1O | inactive: 1
COc1ccc(CNC(=O)C[C@@H]2C[C@H]3c4cc(NS(=O)(=O)c5ccc(F)cc5)ccc4O[C@H]3[C@H](CO)O2)cc1 | inactive: 1.01
COc1ccc(CCc2nc3cc(-c4c(C)noc4C)ccc3n2C[C@H](C)N2CCOCC2)cc1Cl | inactive: 1.01
Cc1noc(C)c1NC(=O)N(C)C[C@H]1Oc2ccc(NC(=O)c3ccncc3)cc2C(=O)N([C@H](C)CO)C[C@H]1C | inactive: 0.983
Cc1ccc(S(=O)(=O)Nc2ccc3c(c2)C(=O)N([C@@H](C)CO)C[C@H](C)[C@H](CN(C)C(=O)NC(C)C)O3)cc1 | inactive: 1
Nc1ccn([C@@H]2O[C@H](CO)[C@H](O)[C@@H]2O)c(=O)n1 | inactive: 1.01
Cc1ccc(S(=O)(=O)N(C)C[C@@H]2Oc3ccc(NS(C)(=O)=O)cc3C(=O)N([C@@H](C)CO)C[C@@H]2C)cc1 | inactive: 1.01
CC(C)N1C(=O)c2cccc(NC(=O)c3ccncc3)c2O[C@H](CN(C)Cc2ccc(Cl)cc2)[C@H]1C | inactive: 1.02
C[C@@H]1CN([C@@H](C)CO)C(=O)Cc2cc(NS(=O)(=O)c3ccccc3)ccc2O[C@@H]1CN(C)S(=O)(=O)c1ccc(F)cc1 | inactive: 0.878
C[C@@H]1CN([C@H](C)CO)C(=O)c2cccc(NC(=O)C3CCOCC3)c2O[C@H]1CN(C)S(=O)(=O)c1cccs1 | inactive: 0.995
C[C@@H]1CCCCO[C@@H](CN(C)C(=O)C2CCCCC2)[C@H](C)CN([C@H](C)CO)C(=O)c2cc(NS(=O)(=O)c3ccccc3)ccc2O1 | inactive: 0.989
C[C@@H]1CCCCO[C@@H](CN(C)Cc2ccc(C(=O)O)cc2)[C@@H](C)CN([C@H](C)CO)C(=O)c2cc(NC(=O)CCC(F)(F)F)ccc2O1 | inactive: 1
C[C@@H](O)C#Cc1ccc2c(c1)O[C@@H](CN(C)C)[C@@H](C)CN([C@@H](C)CO)S2(=O)=O | inactive: 0.99
C[C@@H]1CN([C@H](C)CO)C(=O)Cc2cc(NC(=O)CCC(F)(F)F)ccc2O[C@@H]1CN(C)Cc1ccc(C(=O)Nc2ccccc2N)cc1 | inactive: 1.01
C[C@@H]1CN([C@@H](C)CO)C(=O)CCCn2cc(nn2)CO[C@@H]1CN(C)Cc1ccc2c(c1)OCCN2C | inactive: 0.995
CO[C@H]1CN(C)C(=O)c2cc(NC(=O)Nc3ccccc3F)ccc2OC[C@H](C)N(Cc2ccccc2C(=O)O)C[C@@H]1C | inactive: 0.934
O=C([O-])c1ccccc1-c1c2cc(I)c(=O)c(I)c-2oc2c(I)c([O-])c(I)cc12.[Na+].[Na+] | inactive: 0.861
O=C(NCCN1CCCC1)[C@H]1[C@H](CO)[C@H]2Cn3c(cccc3=O)[C@H]2N1C(=O)c1ccccc1 | inactive: 0.995
C[C@@H]1CN([C@H](C)CO)C(=O)Cc2cc(NS(=O)(=O)c3cn(C)cn3)ccc2O[C@@H]1CN(C)S(=O)(=O)c1ccccc1 | inactive: 0.993
CCOC(=O)c1nnn(CC(N)=O)c1C | inactive: 1.04

Compound | relative growth
COc1ccc(NC(=O)Nc2ccc3c(c2)CC(=O)N([C@@H](C)CO)C[C@@H](C)[C@H](CN(C)Cc2ccc(C(F)(F)F)cc2)O3)cc1 | inactive: 1.05
COc1c(O)cc2c(c1O)C1OC(CO)C(O)C(O)C1OC2=O (stereo not given) | inactive: 1.04
N#CCON1C(=O)c2ccccc2C1=O | inactive: 0.987
C[N+]1(CCCCC[N+]2(C)CCCC2)CCCC1.O=C([O-])C(O)C(O)C(=O)O.O=C([O-])C(O)C(O)C(=O)O | inactive: 0.992
C[C@@H]1CN([C@@H](C)CO)C(=O)c2cc(NC(=O)C3CC3)ccc2O[C@@H]1CN(C)Cc1ccc(-c2ccccc2)cc1 | inactive: 0.921
C[C@H](CO)N1C[C@H](C)[C@H](CN(C)S(=O)(=O)c2ccc(F)cc2)Oc2ccc(NC(=O)C3CC3)cc2CC1=O | inactive: 0.99
C[C@H]1CN([C@@H](C)CO)C(=O)c2cccc(NC(=O)Nc3cccc4ccccc34)c2O[C@@H]1CN(C)S(=O)(=O)c1cccs1 | inactive: 0.753
C[C@H](CO)N1C[C@H](C)[C@H](CN(C)C(=O)Nc2ccc3c(c2)OCO3)Oc2c(NC(=O)C3CCOCC3)cccc2C1=O | inactive: 0.985
O[C@@H]1[C@@H](O)[C@H](OC/C=C/c2ccccc2)O[C@H](CO[C@@H]2OC[C@@H](O)[C@@H](O)[C@@H]2O)[C@H]1O | inactive: 1.01
C[C@@H]1CCCCO[C@@H](CN(C)S(=O)(=O)c2ccccc2)[C@H](C)CN([C@@H](C)CO)C(=O)c2cc(NC(=O)Nc3ccccc3)ccc2O1 | inactive: 1.07
Cc1ccccc1Nc1nnc(C)c(=O)n1N | inactive: 0.947
C[C@@H]1CCCCO[C@H](CN(C)C(=O)Nc2ccc(F)cc2)[C@H](C)CN([C@@H](C)CO)C(=O)c2cc(NC(=O)c3ccccc3)ccc2O1 | inactive: 1.01
CC12CC3CC(C)(C1)CC(N)(C3)C2.Cl | inactive: 0.999
C[C@@H]1CN([C@@H](C)CO)C(=O)c2cc(-c3ccncc3)cnc2O[C@H]1CN(C)S(=O)(=O)c1ccc(F)cc1 | inactive: 1.03
C/C=C/c1ccc2c(c1)O[C@H](CN(C)Cc1ccc(C(=O)O)cc1)[C@@H](C)CN([C@H](C)CO)S2(=O)=O | inactive: 0.976
CC1(C)CC(=O)c2c(C(F)(F)F)nn(-c3ccc(C(N)=O)c(N[C@H]4CC[C@H](OC(=O)CN)CC4)c3)c2C1 | inactive: 0.985
Cc1cc([C@@H](O)CCCN)ccc1F | inactive: 1
C[C@H](CO)N1C[C@H](C)[C@@H](CN(C)Cc2ccc(C(F)(F)F)cc2)Oc2c(NC(=O)Nc3ccc(F)cc3)cccc2C1=O | inactive: 0.869
C[C@@H]1CCCCO[C@H](CN(C)C(=O)c2ccccc2)[C@H](C)CN([C@@H](C)CO)C(=O)c2cc(NS(=O)(=O)c3cccs3)ccc2O1 | inactive: 0.946
COc1ccc2c3c(n(c2c1)C)[C@@H](CO)N(CC1CC1)C[C@]13CCN(CC1)S(=O)(=O)c1cn(cn1)C | inactive: 0.994
